From the RNAGym collection of RNA variant scans (doi:10.1101/gad.245936.114)
This sample is rich in variants without activity.

B1: tRNA (parent)
chain: CUCUCGGUAGCCAAGUUGGUUUAAGGCGCAAGACUUUAAUUUAUCACUACGAAAUCUUGAGAUCGGGCGUUCGACUCGCCCCCGGGAGAUUUUUUCCUCGAGCAA

Variants of: B1
Experiment: nonsense suppression (GFP-seq) (ratio to wild type); higher = more function; SUP4oc tRNA, yeast GFP reporter sort-seq
In short: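 Yeast carrying genome-integrated SUP4oc tRNA variants from a library with ~3% random mutations were grown in raffinose/galactose medium with 80 mg/L adenine. Each strain also carried a galactose-driven GFP ochre reporter and RFP. Cells were sorted into GFP/RFP bins, and each bin was Illumina-sequenced (phred ≥30). Nonsense suppression (GFPSEQ) is the bin median GFP/RFP, weighted by each variant's estimated cell share per bin, relative to wild-type SUP4oc; variants needed ≥100 reads and ≥30 cells.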

Nonsense suppression, ≤ 0.026:
CUCUCGGUAGCCAAUUUGGUUUAGGGCGCAAGACUUUAAUUUAUCACUACGAAAUCUUGAGAUUGGGCGUUCGACUCGCCCCCGGGAGAUUUUUUCCUCGAGCAA [G15U A24G C64U]
CUCUCGGUAGCCAACUUGGUUUAAGGCGCAAGACUUUAAUUUAUCACUACGAAAUCAUGAGAUCGGGCGUUCGACUCGCCCCCGGAAGAUUUUUUCCUCGAGCAA [G15C U57A G86A]
CUCUCGGUAGCCAAUUUGGUUUAAGGCGCAAGACUUUAAUUUAUCACUACGAAAUCUUGAGAUCGGGCGUUCGACUCGCGCCCGGGAGAUUUUUUCCUCGAGCAA [G15U C80G]
CUCUCGGUAGCCAACUGGGUUUAAGGCGCAAGACUUUAAUUUAUCACUACGAAAUCUUGAGAUCGGGCGUUCGACUCGCCCCCGGGAGAUUUUUUCCUCGAGCAA [G15C U17G]
CUCUCGGUAGCCAAUUUGGUUUAAGGCGCAAGACUUUAAUUUAUCACUACGAAAUCUUGAGGUCGGGCGUUCGACUCGCCCCCGGGAGAUUUUUUCCUCGAGCAA [G15U A62G]
CUCUCGGUAGCCAACUUGGUUUAAGGCGCAAGACUUUAAUUUAUCACUACGAAAUCUUGAGAUCGGGCGUACGACUCACCCCCGGGAGAUUUUUUCCUCGAGCAA [G15C U71A G78A]
CUCUCGGUAGCCAAUUUGGUUUAACGCGUAAGACUUUAAUUUAUCACUACGAAAUCUUGAGAUCGGGCGUUCAACUCGCCCCCGGGAGAUUUUUUCCUCGAGCAA [G15U G25C C29U G73A]
CUCUCGGUAGCCAACUUGGUUUAAGGCGCAAGACGUUAAUUUAUCACUACGAAAUCUUGAGAUCGGGCGUUCGACUCGCCGCCGGGAGAUUUUUUCCUCGAGCAA [G15C U35G C81G]
CUCUCGGUAGCCAACUUGGUUUAAGGCGCAAGACAUUAAUUUAUCACUACGAAAUCUUGAGAUCGGGCUUUCGACUCGCCCCCGGGAGAUUUUUUCCUCGAGCAA [G15C U35A G69U]
CUCUCGGUAGCCAAUUUGGUUUAAGGCGCAAGACUUUAAUUUAUCACUACGAAAUCUUGAGAUCGGGUGUUCGACUCCCCCGCAGGAGAUUUUUUCCUCGAGCAA [G15U C68U G78C C82G G84A]
CUCUCGGUAGCCAAUUUGGUUUAAGGGGCAAGACUUUAAUUUAUCACUACGAAAUCUUGAGAUCGGGCGUUCGACUGGCCCCCGGGAGAUUUUUUCCUCGAGCAA [G15U C27G C77G]
CUCUCGGUAGCCAAUUUGGUUUCAGGCGCAAGACUUUAAUUUAUCACUACGAAAUCUUGAGAUCGGGGCUUCGACGCACUCCCGCGAGAUUUUUUCCUCGAGCAA [G15U A23C C68G G69C U76G G78A C80U G85C]
CUCUCGGUAGCCAAUUUGGUUUAAGGCGCAAGACUUUAAUUUAUCACUACGAAAUCUUGAGUUCCGGCGUUCGACUCGCCCCCGGGAGAUUUUUUCCUCGAGCAA [G15U A62U G65C]
CUCUCGGUAGCCAAUUUGGUUUAAGGCGCAAGACUUUAAUUUAUCACUACGAACUAUUGAGAUCGAGCGUUCGACUCGCCCCCAGGAGAUUUUUUCCUCGAGCAA [G15U A54C C56A G66A G84A]
CUCUCGGUAGCCAAUUUCAUUUAAGGCGCAAGACUUUAAUUUAUCACUACGAAAUCUUGAGAUCGGGCGUUCGACUCGCCCCCGGCAGAUUUUUUCCUCGAGCAA [G15U G18C G19A G86C]
CUCUCGGUAGCCAAUUUGGUUUAAGGCGCAAGAAUUUAAUUUAUCACUACGAAAUCUUGAGAUCGGGCGUUCGACUCGCCCCCGGGAGAUUUUUUCCUCGAGCAA [G15U C34A]
CUCUCGGUAGCCAAUUUGGUUUAAGUCGCAAGACUUUAAUUUAUCACUACGAAAUCUUGAGAUCCGGCGUUCGACUCGCCCCCGGGAGAUUUUUUCCUCGAGCAA [G15U G26U G65C]
CUCUCGGUAGCCAAUUUGGUUUAAGGCGCAAGACUUUAAUUUAUCACUACGAAAUCUUGAGAUCGGGGGUUCGACUCGCCCCCGGGAGAUUUUUUCCUCGAGCAA [G15U C68G]
CUCUCGGUAGCCAAUUUGGUUUUAGGCGCCAGACUUUAAUUUAUCACUACGAAAUCUUGAGAUCCGGCGUUCUACGCGCCCCCGGGAGAUUUUUUCCUCGAGCAA [G15U A23U A30C G65C G73U U76G]
CUCUCGGUAGCCAAUUUUGUUUAAGGCGCAAGACUUUAAUUUAUCACUACGAAAUCUUGAGGUCGGGCGUUCGACUCGCCCCCGGGAGAUUUUUUCCUCGAGCAA [G15U G18U A62G]
CUCUCGGUAGCCAACUUGGAUUAAGGCGCAAGACUUUAAUUUAUCACUACGAAAUCUUGUGAUCGGGCGUUCGACUCGCCCCCGGGAGAUUUUUUCCUCGAGCAA [G15C U20A A60U]
CUCUCGGUAGCCAAUUUAGUUUAAGGCGCAAGACUUUAAUUUAUCACUACGAAAUCUCGAGAUCGGGCGUUCGACUCGCCCCCGUGAGAUUUUUUCCUCGAGCAA [G15U G18A U58C G85U]
CUCUCGGUAGCCAAUUUGGUUUAAGGCGCAAGAGUUUAAUUUAUCACUACGAAAUCUUGAGAUCGGCCGUUCGGCUCGCCCCCGGGAGAUUUUUUCCUCGAGCAA [G15U C34G G67C A74G]
CUCUCGGUAGCCAAUUUGGUUUAAGACGCAAGACUUUAAUUUAUCACUACGAAAUUUUGAGAUCGGGCGUUCGACUCGCCCCCGGGAGAUUUUUUCCUCGAGCAA [G15U G26A C56U]
CUCUCGGUAGCCAAUUUGGUUUAAGGCGCAAGAGUUUAAUUUAUCACUACGAAAUCUUGAGACCGGGCGUUCGACUCGCCCCCGGGAGAUUUUUUCCUCGAGCAA [G15U C34G U63C]
CUCUCGGUAGCCAAUUUGGUUUUAGGCGCAAGACUUUAAUUUAUCACUACGAAAUCGUGAGAUCGGGCUUUCGACUCGCCCUCGGGAGAUUUUUUCCUCGAGCAA [G15U A23U U57G G69U C82U]
CUCUCGGUAGCCAAUUUGGUUUAGGGCGCAAGACUUUAAUUUAUCACUACGAAAUCUUCAGAUCGGGCGUUCGACUCGCCCCCGGGAGAUUUUUUCCUCGAGCAA [G15U A24G G59C]
CUCUCGGUAGCCAAUUUGAUUUAAGGCGCAAGACUUUAAUUUAUCACUACGAAUUCUUGAGGUCGGGCGUUCGACUCGACCCCGGGAGAUUUUUUCCUCGAGCAA [G15U G19A A54U A62G C79A]
CUCUCGGUAGCCAAUUUGGUUUAAGGCGCGAGACUUUAAUUUAUCACUACGAAAUCUUGAGAGCGGGCGUUCGACUCGCCCCCGGGAGAUUUUUUCCUCGAGCAA [G15U A30G U63G]
CUCUCGGUAGCCAACUUGGUUUAAGGCGCAAGACUUUAAUUUAUCACUACGAAAUCUUGAGAUCGGGCGUUCGACGCGCCCCCGGGAGAUUUUUUCCUCGAGCAA [G15C U76G]
CUCUCGGUAGCCAACUUGGUUUAAGGCGCAAGACUUUAAUUUAUCACUACGAAAUCUUGAGAUCGGGCGUUCGACCCGCCCCCGGGAGAUUUUUUCCUCGAGCAA [G15C U76C]
CUCUCGGUAGCCAACUUGGUUUAAGGCGCAAGACUUUAAUUUAUCACUACGAAAUCUUGAGAUCGGGCGUUCGACACGCCCCCGGGAGAUUUUUUCCUCGAGCAA [G15C U76A]
CUCUCGGUAGCCAAUUUGGUUUAAGACGCAAGACUUUAAUUUAUCACUACGAAAUCAUGAGAUCGGGCGUUCGACUCGCCCCCGGCAGAUUUUUUCCUCGAGCAA [G15U G26A U57A G86C]
CUCUCGGUAGCCAAUUUGGUUUAAGGCGAAAGACUUUAAUUUAUCACUACGAAAUCUGGAGAUCCGGCGUUCGACUCGCCCCCGGGAGAUUUUUUCCUCGAGCAA [G15U C29A U58G G65C]
CUCUCGGUAGCCAAUUUGGUUUAAGGCGCAAGACUUUAAUUUAUCACUACGAAAUCUUGAGAUCGGGCGUUAGACUCACCCCCGGGAGAUUUUUUCCUCGAGCAA [G15U C72A G78A]
CUCUCGGUAGCCAACUUGGUUGCAGGCGCAAGACUUUAAUUUAUCACUACGAAAUCUUGAGAUCGGGCGUUCGACUCGCCCCCGGGAGAUUUUUUCCUCGAGCAA [G15C U22G A23C]
CUCUCGGUAGCCAAUUUGGUUUCAGGCGCAAGACUUUAAUUUAUCACUACGAAAUCUUGAGAUCGGGCGUUCGCCUCGCCCCCGGGAGAUUUUUUCCUCGAGCAA [G15U A23C A74C]
CUCUCGGUAGCCAACUUGGUUUAAGGCGCAAGACUUUAAUUUAUCACUACGAAAUCCUGAGAUCGGGCGUUCGACUCGCCCCCGGGAGAUUUUUUCCUCGAGCAA [G15C U57C]
CUCUCGGUAGCCAAUUUGGUUUAAGGCGCCAGACUUUAAUUUAUCACUACGAAAUCUUGAGAUCGGGCGUUCGACUCACCCCCGGGAGAUUUUUUCCUCGAGCAA [G15U A30C G78A]
CUCUCGGUAGCCAAUUUGGUUUAAGGCGCCAGACUUUAAUUUAUCACUACGAAAUCUUGAGAUCGGGCGUUCGACUCCCCCCCGGGAGAUUUUUUCCUCGAGCAA [G15U A30C G78C]
CUCUCGGUAGCCAAUUUGGUUUAAGGCGCGAGACUUUAAUUUAUCACUACGAAAUCUUGAGAUCGGGCGAGCGACUCGCCCCCGGGAGCUUUUUUCCUCGAGCAA [G15U A30G U70A U71G A89C]
CUCUCGGUAGCCAAUUUGGUUUAAGGCGCAAGACUUUAAUUUAUCACUACGAAAUCUUGUGAUCGGGCGUUCGACUCGCCACCGGGAGAUUUUUUCCUCGAGCAA [G15U A60U C81A]
CUCUCGGUAGCCAAUUUGGUUUAAGGCGCAAGACUUUAAUUUAUCACUACGAAAUCUUGAGAUGGGGCGUUCGACUCGCCCCCGGGAGUUUUUUUCCUCGAGCAA [G15U C64G A89U]
CUCUCGGUAGCCAAUUUGGUUUAAGGCGCUAGACUUUAAUUUAUCACUACGAAAUCUUGAGAUCGGGCGUUCGACUCGCCCCCGGGAGAUUUUUUCCUCGAGCAA [G15U A30U]
CUCUCGGUAGCCAAUUUGGUUUAAGGCGCACGUCUUUAAUUUAUCACUACGAAAUCUUGAGAUCGGGCGUUCGACUCGCCCCCGGGAGAUUUUUUCCUCGAGCAA [G15U A31C A33U]
CUCUCGGUAGCCAAUUUGGUUUAAGGCGCAAGACUUUAAUUUAUCACUACGAACUCUUGAGAUCGGGCGUUCGACUCGCCCCCGGGAGAUUUUUUCCUCGAGCAA [G15U A54C]
CUCUCGGUAGCCAACUUGGUCUAAGGCGCAAGACUUUAAUUUAUCACUACGAAAUCUUGAAAUCGGGCGUUCGACUCGCCCCCGGGAGAUUUUUUCCUCGAGCAA [G15C U21C G61A]
CUCUCGGUAGCCAAUUUGGUUUAAUGCGCAAGAAUUUAAUUUAUCACUACGAAAUCUUGAGAUCGGGCGUUCGACUCGCCCCCGGGAGAUUUUUUCCUCGAGCAA [G15U G25U C34A]
CUCUCGGUAGCCAAUUUGGUUUAUGGCGCAAGACUUUAAUUUAUCACUACGAAAUCUUGAGAUCGGGCGUUCGACUCGCCCCCGGCAGAUUUUUUCCUCGAGCAA [G15U A24U G86C]
CUCUCGGUAGCCAAUUUGGUUUAAGGUGCAAGACUUUAAUUUAUCACUACGAAAUCUUGAGAUCGGGCGUUCGACUCGCCCCCGGGACAUUUUUUCCUCGAGCAA [G15U C27U G88C]
CUCUCGGUAGCCAACUUGGUUUAAGGCGCAAGACUUUAAUUUAUCACUACGAAAUCUGGAGAUCGGGCGUUCGACUCGCCCCCGGGAGAUUUUUUCCUCGAGCAA [G15C U58G]
CUCUCGGUAGCCAAUUUGGUUUUAGGCGCACGACUUUAAUUUAUCACUACGAAAUCUUGAGAUCGGGCGUUCGACUCGCCCCCGGGAGAUUUUUUCCUCGAGCAA [G15U A23U A31C]
CUCUCGGUAGCCAACUUGGUUUAAGGCGCAAGACUUUAAUUUAUCACUACGAAAUCUGGAGAUCGGGCAUUCGACUCGCCCCCGGGAGAUUUUUUCCUCGAGCAA [G15C U58G G69A]
CUCUCGGUAGCCAAUUUGGUUUAAGGCGCAAGACUUUAAUUUAUCACUACGAAAUAUUGACAUCGGGCGUUCGACUCGCCCCCGGGAGAUUUUUUCCUCGAGCAA [G15U C56A G61C]
